# Data taken from the supplement of paper PMC8728848.
# This is one part of the list.
# Experiments:
# Assay in all cases: glycan array binding signal (z-score within array); higher = stronger binding
# Conditions in all cases: glycan notation: IUPAC condensed, linker removed
# [1] = target: Gal(b1-3)GlcNAc(b1-3)GalNAc
# Outline: (§1)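 Arrays were curated from the Consortium for Functional Glycomics database, 3228 in total, and kept only where the protein sequence was available. Binding is expressed as a within-array Z-score. This score was averaged across arrays of the same protein sequence at different concentrations or buffers and across linkers, and negative values can be read as non-binding.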
# [2] = target: Gal(b1-3)GlcNAc(b1-6)Gal(b1-4)GlcNAc
# Outline: as §1
# [3] = target: Gal(b1-3)[Fuc(a1-4)]GlcNAc
# Outline: as §1
# [4] = target: Gal(b1-3)[Fuc(a1-4)]GlcNAc(b1-2)Man(a1-3)[Gal(b1-3)[Fuc(a1-4)]GlcNAc(b1-2)Man(a1-6)]Man(b1-4)GlcNAc(b1-4)GlcNAc
# Outline: as §1
# [5] = target: Gal(b1-3)[Fuc(a1-4)]GlcNAc(b1-2)Man(a1-3)[Gal(b1-3)[Fuc(a1-4)]GlcNAc(b1-2)Man(a1-6)]Man(b1-4)GlcNAc(b1-4)[Fuc(a1-6)]GlcNAc
# Outline: as §1
# [6] = target: Gal(b1-3)[Fuc(a1-4)]GlcNAc(b1-3)Gal(b1-3)[Fuc(a1-4)]GlcNAc
# Outline: as §1
# [7] = target: Gal(b1-3)[Fuc(a1-4)]GlcNAc(b1-3)Gal(b1-4)GlcNAc
# Outline: as §1
# [8] = target: Gal(b1-3)[Fuc(a1-4)]GlcNAc(b1-3)Gal(b1-4)[Fuc(a1-3)]GlcNAc
# Outline: as §1
# [9] = target: Gal(b1-3)[GlcNAc(b1-6)]GalNAc
# Outline: as §1
# [10] = target: Gal(b1-3)[Neu5Ac(a2-6)]GalNAc
# Outline: as §1
# [11] = target: Gal(b1-3)[Neu5Ac(a2-6)]GlcNAc(b1-6)Gal(b1-4)Glc
# Outline: as §1
# [12] = target: Gal(b1-3)[Neu5Ac(b2-6)]GalNAc
# Outline: as §1
# [13] = target: Gal(b1-4)GalNAc(a1-3)[Fuc(a1-2)]Gal(b1-4)GlcNAc
# Outline: as §1
# [14] = target: Gal(b1-4)GalNAc(b1-3)[Fuc(a1-2)]Gal(b1-4)GlcNAc
# Outline: as §1
# [15] = target: Gal(b1-4)Glc
# Outline: as §1
# [16] = target: Gal(b1-4)Glc6S
# Outline: as §1
# [17] = target: Gal(b1-4)GlcNAc
# Outline: as §1
# [18] = target: Gal(b1-4)GlcNAc(a1-6)Gal(b1-4)GlcNAc
# Outline: as §1
# [19] = target: Gal(b1-4)GlcNAc(b1-2)Man(a1-3)Man(b1-4)GlcNAc(b1-4)GlcNAc
# Outline: as §1
# [20] = target: Gal(b1-4)GlcNAc(b1-2)Man(a1-3)[Gal(b1-4)GlcNAc(b1-2)Man(a1-6)]Man(b1-4)GlcNAc(b1-4)GlcNAc
# Outline: as §1
# [21] = target: Gal(b1-4)GlcNAc(b1-2)Man(a1-3)[Gal(b1-4)GlcNAc(b1-2)Man(a1-6)]Man(b1-4)GlcNAc(b1-4)[Fuc(a1-6)]GlcNAc
# Outline: as §1
# [22] = target: Gal(b1-4)GlcNAc(b1-2)Man(a1-3)[GlcNAc(b1-2)Man(a1-6)]Man(b1-4)GlcNAc(b1-4)GlcNAc
# Outline: as §1
# [23] = target: Gal(b1-4)GlcNAc(b1-2)Man(a1-3)[Man(a1-6)]Man(b1-4)GlcNAc(b1-4)GlcNAc
# Outline: as §1
# [24] = target: Gal(b1-4)GlcNAc(b1-2)Man(a1-6)Man(b1-4)GlcNAc(b1-4)GlcNAc
# Outline: as §1
# [25] = target: Gal(b1-4)GlcNAc(b1-2)Man(a1-6)[GlcNAc(b1-2)Man(a1-3)]Man(b1-4)GlcNAc(b1-4)GlcNAc
# Outline: as §1
# [26] = target: Gal(b1-4)GlcNAc(b1-2)Man(a1-6)[Man(a1-3)]Man(b1-4)GlcNAc(b1-4)GlcNAc
# Outline: as §1
# [27] = target: Gal(b1-4)GlcNAc(b1-2)[Gal(b1-4)GlcNAc(b1-4)]Man(a1-3)[Gal(b1-4)GlcNAc(b1-2)Man(a1-6)]Man(b1-4)GlcNAc(b1-4)GlcNAc
# Outline: as §1
# [28] = target: Gal(b1-4)GlcNAc(b1-2)[Gal(b1-4)GlcNAc(b1-4)]Man(a1-3)[Gal(b1-4)GlcNAc(b1-2)[Gal(b1-4)GlcNAc(b1-6)]Man(a1-6)]Man(b1-4)GlcNAc(b1-4)GlcNAc
# Outline: as §1
# [29] = target: Gal(b1-4)GlcNAc(b1-3)Gal(b1-3)GlcNAc
# Outline: as §1
# [30] = target: Gal(b1-4)GlcNAc(b1-3)Gal(b1-4)Glc
# Outline: as §1
# [31] = target: Gal(b1-4)GlcNAc(b1-3)Gal(b1-4)GlcNAc
# Outline: as §1
# [32] = target: Gal(b1-4)GlcNAc(b1-3)Gal(b1-4)GlcNAc(b1-3)Gal(b1-4)GlcNAc
# Outline: as §1
# [33] = target: Gal(b1-4)GlcNAc(b1-3)Gal(b1-4)[Fuc(a1-3)]GlcNAc(b1-3)Gal(b1-4)[Fuc(a1-3)]GlcNAc
# Outline: as §1
# [34] = target: Gal(b1-4)GlcNAc(b1-3)GalNAc
# Outline: as §1
# [35] = target: Gal(b1-4)GlcNAc(b1-3)[Gal(b1-4)GlcNAc(b1-6)]Gal(b1-4)GlcNAc
# Outline: as §1
# [36] = target: Gal(b1-4)GlcNAc(b1-3)[Gal(b1-4)GlcNAc(b1-6)]GalNAc
# Outline: as §1
# [37] = target: Gal(b1-4)GlcNAc(b1-3)[GlcNAc(b1-6)]Gal(b1-4)GlcNAc
# Outline: as §1
# [38] = target: Gal(b1-4)GlcNAc(b1-6)Gal(b1-4)GlcNAc
# Outline: as §1
# [39] = target: Gal(b1-4)GlcNAc(b1-6)Gal(b1-4)GlcNAc(b1-6)GalNAc
# Outline: as §1
# [40] = target: Gal(b1-4)GlcNAc(b1-6)GalNAc
# Outline: as §1
# [41] = target: Gal(b1-4)GlcNAc(b1-6)[Gal(b1-3)]GalNAc
# Outline: as §1
# [42] = target: Gal3S(b1-3)GalNAc
# Outline: as §1
# [43] = target: Gal3S(b1-3)GlcNAc
# Outline: as §1
# [44] = target: Gal3S(b1-3)[Fuc(a1-4)]GlcNAc
# Outline: as §1
# [45] = target: Gal3S(b1-4)Glc
# Outline: as §1
binder,measurement,setting,value
"Mincle (Homo sapiens), Q9ULY5 (protein) MNSSKSSETQCTERGCFSSQMFLWTVAGIPILFLSACFITRCVVTFRIFQTCDEKKFQLPENFTELSCYNYGSGSVKNCCPLNWEYFQSSCYFFSTDTISWALSLKNCSAMGAHLVVINSQEEQEFLSYKKPKMREFFIGLSDQVVEGQWQWVDGTPLTKSLSFWDVGEPNNIATLEDCATMRDSSNPRQNWNDVTCFLNYFRICEMVGINPLNKGKSL",glycan array binding signal (z-score),[1],-0.038
same,glycan array binding signal (z-score),[2],-0.074
same,glycan array binding signal (z-score),[3],-0.206
same,glycan array binding signal (z-score),[4],1.13
same,glycan array binding signal (z-score),[5],-0.066
same,glycan array binding signal (z-score),[6],-0.027
same,glycan array binding signal (z-score),[7],-0.414
same,glycan array binding signal (z-score),[8],-0.084
same,glycan array binding signal (z-score),[9],-0.192
same,glycan array binding signal (z-score),[10],-0.143
same,glycan array binding signal (z-score),[11],-0.44
same,glycan array binding signal (z-score),[12],-0.188
same,glycan array binding signal (z-score),[13],-0.174
same,glycan array binding signal (z-score),[14],-0.342
same,glycan array binding signal (z-score),[15],-0.408
same,glycan array binding signal (z-score),[16],0.126
same,glycan array binding signal (z-score),[17],-0.374
same,glycan array binding signal (z-score),[18],-0.484
same,glycan array binding signal (z-score),[19],-0.49
same,glycan array binding signal (z-score),[20],2.23
same,glycan array binding signal (z-score),[21],-0.008
same,glycan array binding signal (z-score),[22],0.969
same,glycan array binding signal (z-score),[23],-0.32
same,glycan array binding signal (z-score),[24],-0.433
same,glycan array binding signal (z-score),[25],0.312
same,glycan array binding signal (z-score),[26],0.476
same,glycan array binding signal (z-score),[27],-0.124
same,glycan array binding signal (z-score),[28],-0.45
same,glycan array binding signal (z-score),[29],-0.047
same,glycan array binding signal (z-score),[30],0.002
same,glycan array binding signal (z-score),[31],-0.27
same,glycan array binding signal (z-score),[32],0.047
same,glycan array binding signal (z-score),[33],-0.332
same,glycan array binding signal (z-score),[34],-0.405
same,glycan array binding signal (z-score),[35],0.237
same,glycan array binding signal (z-score),[36],0.009
same,glycan array binding signal (z-score),[37],-0.066
same,glycan array binding signal (z-score),[38],-0.126
same,glycan array binding signal (z-score),[39],-0.343
same,glycan array binding signal (z-score),[40],-0.306
same,glycan array binding signal (z-score),[41],-0.305
same,glycan array binding signal (z-score),[42],-0.374
same,glycan array binding signal (z-score),[43],0.417
same,glycan array binding signal (z-score),[44],2.46
same,glycan array binding signal (z-score),[45],-0.316
